According to publication PMC4336329 (PLoS ONE, 2015):
Hit rate of the full screen: of about 310,000 compounds, about 14,000 (4.5%) showed an effect of 50% or more. Effects have a minus sign here. This is one part of the list.

Molecular target: human ether-à-go-go-related gene (hERG) potassium channel (human, UniProt Q12809)
Experiment: primary screen, population patch clamp on CHO cells stably expressing hERG
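Also: peak tail current of the secondary pulse compared with the same well before compound.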

Chain of human ether-à-go-go-related gene (hERG) potassium channel (Q12809 whole entry, looked up): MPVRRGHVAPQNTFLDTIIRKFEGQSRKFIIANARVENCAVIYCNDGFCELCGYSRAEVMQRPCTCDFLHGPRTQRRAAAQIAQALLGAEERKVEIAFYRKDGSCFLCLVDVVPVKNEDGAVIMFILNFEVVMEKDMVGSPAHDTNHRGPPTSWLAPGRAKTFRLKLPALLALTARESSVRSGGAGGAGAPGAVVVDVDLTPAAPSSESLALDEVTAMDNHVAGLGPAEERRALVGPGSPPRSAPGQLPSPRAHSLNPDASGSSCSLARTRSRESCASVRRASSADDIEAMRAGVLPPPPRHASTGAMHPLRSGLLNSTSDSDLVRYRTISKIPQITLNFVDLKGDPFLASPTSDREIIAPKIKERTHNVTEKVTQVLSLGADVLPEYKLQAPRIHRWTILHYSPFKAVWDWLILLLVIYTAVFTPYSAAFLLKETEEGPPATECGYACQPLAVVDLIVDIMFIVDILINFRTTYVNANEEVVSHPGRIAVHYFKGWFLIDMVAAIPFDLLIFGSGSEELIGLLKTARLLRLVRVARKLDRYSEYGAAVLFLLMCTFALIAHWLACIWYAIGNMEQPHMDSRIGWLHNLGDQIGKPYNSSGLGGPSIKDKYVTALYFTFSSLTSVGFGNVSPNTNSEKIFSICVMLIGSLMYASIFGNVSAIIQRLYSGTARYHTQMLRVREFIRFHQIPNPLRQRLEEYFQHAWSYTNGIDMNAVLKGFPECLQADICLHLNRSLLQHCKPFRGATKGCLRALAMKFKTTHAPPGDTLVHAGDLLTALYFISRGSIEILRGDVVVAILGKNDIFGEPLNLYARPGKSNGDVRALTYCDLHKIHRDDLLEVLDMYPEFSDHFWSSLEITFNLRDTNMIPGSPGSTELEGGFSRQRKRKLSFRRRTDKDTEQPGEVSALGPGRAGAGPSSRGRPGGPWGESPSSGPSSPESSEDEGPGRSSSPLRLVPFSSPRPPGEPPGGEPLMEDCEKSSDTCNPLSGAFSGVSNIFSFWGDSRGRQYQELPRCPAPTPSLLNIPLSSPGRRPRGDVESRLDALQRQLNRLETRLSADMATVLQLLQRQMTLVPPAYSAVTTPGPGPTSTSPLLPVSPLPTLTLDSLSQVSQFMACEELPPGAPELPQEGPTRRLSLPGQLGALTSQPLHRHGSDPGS

SMILES	hERG current change (%, negative = inhibition) at 10uM [%]
CC(=O)Nc1cccc(C(=O)Nc2cccc(S(=O)(=O)NCc3ccco3)c2)c1	-4.68
CC(=O)Nc1ccc(NC(=O)C(C)OC(=O)CCCN2C(=O)c3cccc4cccc(c34)C2=O)cc1 (stereo not shown)	3.52
CCn1c(C)cc(O)c(C(=O)Nc2cccc(Cl)c2)c1=O	7.26
CCOC(=O)N1CCC(N2Cc3cccc(C(=O)NCC4CCN(CC(C)C)C4)c3C2=O)CC1 (stereo not shown)	-36.1
COc1ccccc1NC(=O)CSc1nc2ccccc2c(=O)n1C	12.1
CC(c1ccccc1)n1c(SCC(=O)N2CC(=O)Nc3ccccc32)nc2ccccc2c1=O (stereo not shown)	7.92
O=C1Nc2ccccc2O/C1=C\c1ccccc1	17.2
Cc1nc2ccc3nc(NC(=O)c4ccc5c(c4)OCCO5)sc3c2s1	2.9
COc1ccccc1N(Cc1cc2ccc(C)cc2[nH]c1=O)C(C)=O	-11.6
Cc1cn(CC2COC(C)(C)O2)c(=O)[nH]c1=O (stereo not shown)	22.6
Cc1ccccc1S(=O)(=O)N1[C@@H](c2ccccc2)C(C(=O)O)=CC[C@H]1c1ccc(Cl)cc1	14.4
CC(C)(C)c1ccc(C(=O)NCC(=O)OCC(=O)N2CCN(S(=O)(=O)c3ccc(Cl)cc3)CC2)cc1	-4.82
Cc1ccc(C)c(OCC(=O)N2CCc3ccccc3C2)c1	0.256
Cc1cccc(NS(=O)(=O)c2ccccc2)n1	-8.65
COc1cccc(N2C(=O)C(Cc3c[nH]c4ccccc34)NC2=S)c1 (stereo not shown)	17.3
CN(C)C(CNC(=O)c1ccc(C2SCCS2)cc1)c1ccccc1 (stereo not shown)	7.3
COC(=O)c1cc(OC)c(OC)cc1NC(=O)C1CCC(=O)N1S(=O)(=O)c1ccc(C)cc1 (stereo not shown)	-12.3
Cc1ccc(C(=O)N(C)CC(=O)Nc2cccc(F)c2)cc1S(=O)(=O)N1CCCCC1	-10.5
COc1ccc(C(=O)Nn2c(SCc3cccc([N+](=O)[O-])c3)nc3ccccc3c2=O)cc1	5.72
CC(=O)Nc1ccc(NC(=O)C(=O)NCC(c2ccco2)N2CCc3ccccc32)cc1 (stereo not shown)	-8.84
CC(=O)OCC(=O)C1(O)CCC2C3CCC4=CC(=O)C=CC4(C)C3C(O)CC21C (stereo not shown)	9.27
O=c1[nH]c(O)c(C=Nc2ccccc2[N+](=O)[O-])c(=O)[nH]1	36.7

SMILES	hERG current change (%, negative = inhibition) at 10uM [%]
CC(=O)NCCC1CCN(C(=O)C2CCC(=O)N(C3CCCC3)C2)CC1 (stereo not shown)	11.2
COc1ccc(-c2nnn(CC(=O)N(CCN3CCOCC3)C(C(=O)NC3CCCC3)c3ccco3)n2)cc1 (stereo not shown)	-15.7
CCOc1ccc(OC(=O)c2ccc3c(=O)n4c(nc3c2)CCC4)cc1	-0.0701
CCC(C)N(CCNC(=O)c1ccc(NC2=NC3CS(=O)(=O)CC3S2)cc1)Cc1ccco1 (stereo not shown)	-19.9
Cc1cc(Cl)c(OCCOCCN2CCN(C)CC2)c(Br)c1.O=C(O)C(=O)O	-9.48
S=c1[nH]c2ncccc2o1	-31.9
COCCN1CCn2c(nc3cc(NS(C)(=O)=O)ccc32)C1	-9.18
Cc1c(/C=N/n2cnnc2)c2ccccc2n1CCOc1ccc(Cl)cc1	-7.38
CCC(=O)c1ccc(OCC(O)CNC(C)c2ccccc2)cc1 (stereo not shown)	-14.7
CCOc1cc(N2CCOCC2)c(OCC)cc1NC(=O)CN1C(=O)NC2(CCCCC2)C1=O	-69.7
CC(=O)O[C@@H]1[C@@H](OC(C)=O)[C@H](n2ccc3cc([N+](=O)[O-])ccc32)OC[C@@H]1OC(C)=O	-2.52
Nc1c(-c2ccccc2)c(CSc2nc3ccccc3[nH]2)nn1-c1cccc(Cl)c1	-3.15
COc1ccc(OCCNC(=O)/C=C/c2ccc([N+](=O)[O-])cc2)cc1	-64.7
CC(NC(=O)c1cc(S(=O)(=O)N2CCOCC2)ccc1N1CCCC1)c1ccc(Cl)c(Cl)c1 (stereo not shown)	-23.9
O=C(Nc1ccnn1C1CCN(Cc2cccc(OCCO)c2)CC1)C1CCOC1 (stereo not shown)	-2.98
CCc1noc(C)c1C(=O)N1CCN(S(=O)(=O)c2ccc(Br)cc2Cl)CC1	-40.7
COc1ccc(CCNC(=O)Cn2cccc2C(=O)c2ccccc2)cc1OC	18.4
COC(=O)[C@]1(C)CCC[C@@]2(C)C3CC[C@@]4(C)C[C@]3(CCC21)CC4=NO (stereo partly shown)	-11.2
Cc1ccc(C(=O)Nc2nnc(-c3ccncc3)o2)cc1	-7.01
Cc1ccc(S(=O)(=O)N2CCCCC2)cc1NC(=O)Nc1ccc(Cl)cc1Cl	19
COc1cc(Cl)ccc1NC(=S)N(CCCN1CCOCC1)Cc1cn(C)c2ccccc12	-5.83
